In all, about 410,000 compounds went through this assay and about 5,000 (1.2%) were called active. The shares of active, inactive and inconclusive entries below differ from those in the screen. Calls follow the shape of the dose curve; as a rule, active = well fitted inhibition curve with a large enough effect; inconclusive = small, poorly fitted or top-dose-only effect; inactive = no such curve, though single readings can be large or run the other way. Potencies of inconclusive entries are doubtful fits and often do not repeat.
experiment: qHTS for Inhibitors of TGF-b; conditions: HepG2 CAGA-GFP TGF-b/SMAD3 reporter, GFP fluorescence, 18 h, TGF-beta stimulated, 500 pg/mL final; series mostly up to 46.1 µM; activity, negative = inhibition: at the top concentration; also: nearly all actives have a fitted effect of over 65% in size
Procedure, shortened: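 HEPG2 CAGA-GFP, 1000 cells/well; 2 h settle, 37 C; cpd via pin tool; TGF-b 500 pg/mL final; 18 h, 37 C; GFP imaging ex488/em500-530; %Activity normalised to -TGF-b and +DMSO controls; CRC fit, curve class.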
% is scaled to controls: 0 for no effect and ±100 for the full control effect; potency is read from the fitted curve at half-maximal effect; tags tell the direction and shape of the fitted curve.

For `Cc1ccc2[nH]c3c(NCc4ccco4)ncnc3c2c1`, which Potency is on record?
Its Potency is inconclusive: 15.8 µM [inhibitor, single point].

For `C=CCCC(=O)Nc1nc(C)c(-c2csc(Nc3cc(OC)ccc3OC)n2)s1`, which Potency is on record?
The Potency was inconclusive: 2.24 µM [inhibitor, full curve].

With `COc1ccc(S(=O)(=O)Nc2cccc3c2O[C@H](CN(C)Cc2ccc(Oc4ccccc4)cc2)[C@@H](C)CN([C@H](C)CO)C3=O)cc1` as the compound, how does the Potency read?
The Potency was inconclusive: 17.8 µM [inhibitor, partial curve, poor fit].

For `COC(=O)c1ccc(NC(=O)c2c(NCc3ccc(OC)c(OC)c3)sc3c2CCCC3)cc1`, which Potency is on record?
The Potency was inconclusive: 10 µM [inhibitor, partial curve, poor fit].

For `CCOCCCN(C(=O)c1snc(C(N)=O)c1N)C(C(=O)NC1CCCC1)c1ccc(O)c(OC)c1` (centres undefined), which “activity, negative = inhibition” value is on record?
The value was inactive: -1.01%.

With `CCOC(=O)c1cccc(NC(=O)C2CCN(S(=O)(=O)c3cccs3)CC2)c1` as the compound, how does the “activity, negative = inhibition” value read?
The value was inactive: -23.1%.

Which “activity, negative = inhibition” value does the source give for `Nc1cc(=O)[nH]c(SCc2ccccc2)n1` here?
Its value is inactive: -2.16%.

With `O=C(CSc1nc2cc([N+](=O)[O-])ccc2n1-c1ccccc1)NCc1ccc2c(c1)OCO2` as the compound, how does the “activity, negative = inhibition” value read?
Its value is inactive: -24.2%.

For `Cc1ccc(S(=O)(=O)N2CCN(c3ccnc4cc(Cl)ccc34)CC2)cc1C`, which Potency is on record?
The Potency was inconclusive: 35.5 µM [inhibitor, single point].

Which Potency does the source give for `O=C1NC2=C(CCc3ccccc32)C(c2ccc(Br)cc2)N1` (centres undefined) here?
The Potency was inconclusive: 35.5 µM [inhibitor, single point].

For `O=Cc1ccc(-c2cccc(C(=O)O)c2)o1`, which Potency is on record?
The Potency was inconclusive: 35.5 µM [inhibitor, single point].

Which “activity, negative = inhibition” value does the source give for `COC(=O)C1=CN(Cc2ccc(F)cc2)C=C(C(=O)OC)C1c1cc(OC)c(OC)c(OC)c1` here?
The value was inactive: 15.5%.

For `COC(=O)c1cc(NC(=O)c2ccc(F)cc2)cc(C(=O)OC)c1`, which “activity, negative = inhibition” value is on record?
Its value is inactive: 8.33%.

With `CCc1nc(C(N)=O)c2[nH]c(=O)n(-c3ccc(OC)cc3OC)c2n1` as the compound, how does the “activity, negative = inhibition” value read?
The value was inactive: 2.28%.

Which Potency does the source give for `CC(=O)c1cccc(NC(=O)c2cc(-c3ccc4c(c3)OCCO4)on2)c1` here?
Its Potency is inconclusive: 14.1 µM [inhibitor, partial curve, poor fit].

For `C/C(=N\NC(=S)NC1CCCCC1)c1ccc(OC(F)F)cc1OC(F)F`, which Potency is on record?
Its Potency is inconclusive: 31.6 µM [inhibitor, partial curve, poor fit].

For `Cc1cccc(C)c1NC(=O)c1cccc(COc2cc(Cl)ccc2Cl)c1`, which Potency is on record?
Its Potency is inconclusive: 6.31 µM [inhibitor, single point].

Which Potency does the source give for `Cc1nc2ccc(S(=O)(=O)NC(CC(C)C)C(=O)O)cc2s1` (centres undefined) here?
Its Potency is inconclusive: 5.62 µM [inhibitor, single point].

With `CCOC(=S)SCC(=O)Nc1nc(-c2ccc(Br)cc2)cs1` as the compound, how does the Potency read?
The Potency was inconclusive: 3.16 µM [inhibitor, full curve].

Source: PubChem BioAssay AID588855 (National Center for Advancing Translational Sciences (NCATS), 2011)
